Hit rate of the full screen: of about 150,000 compounds, about 540 (0.36%) showed an effect of 50% or more. Some of the results follow.

This experiment relates to Plasmodium falciparum. Description: Primary screen in NF54 nanoGlo assay, in single point, at 2uM, 72h; a lower Z score goes with more inhibition. To be noted: timepoint 72 hour. It is filed as functional, Erythrocyte.
By % Inhibition is commonly meant the change of the read-out against control, counted positive when it falls. On to `Nc1cc(N2CCn3nc(CNc4cnccn4)cc3C2)ncn1`, for which the “% Inhibition” value is listed as -14% and the Z score was 1.49.
For `Cc1cc(-c2cccnc2)nn1CCNS(=O)(=O)Cc1cc(F)ccc1F`, the “% Inhibition” value was 8% and the Z score is given as -1.03.
The matching figures for `CC(C)n1ncc2c(=O)n(CN3CCCCC3=O)cnc21`: 5% and -0.68.
Taken in the same sequence, the figures for `C[C@@H](Cc1cccc(F)c1)NS(=O)(=O)CC1CCOCC1` were -6% and 0.83.
For `Cc1cc(NC(=O)C[C@H](O)C(C)C)ccc1Oc1ccncc1`, the “% Inhibition” value is listed as -16% and the Z score came out at 2.04.
The matching figures for `O=C(CN1C(=O)c2ccccc2C1=O)NC1CCC(O)CC1` (configuration not stated): 2% and -0.35.
The matching figures for `Cc1ccc(C)n1CC(=O)NCCCn1ccnc1`: -7% and 0.95.
For the compound `CC(C)n1cc([C@@H]2CC(=O)Nc3cccc4c3c2cn4Cc2ccccc2)cn1`, the “% Inhibition” value was -22% and the Z score is given as 2.86.
Taken in the same sequence, the figures for `O=C1NC2(CCCCC2)C(=O)N1CN1CCC[C@H](c2nc3ccccc3s2)C1` were -6% and 0.62.
Regarding `COc1cc(C)cnc1C(=O)N1CC[C@H](O)C1(C)C`, the “% Inhibition” value is reported as -3% and the Z score is listed as 0.45.
On to `N[C@@H](CC(=O)N1CCC2(CCCCC2)C1)c1ccccc1`, for which the “% Inhibition” value is -11% and the Z score worked out at 2.
Taken in the same sequence, the figures for `CC(=O)NCc1csc(C2CCN(S(=O)(=O)c3cc(C)c(C)cc3C)CC2)n1` were -14% and 1.69.
For `COc1cc(CNC[C@H]2CCCO2)cc(Br)c1OCc1cccnc1`, the “% Inhibition” value was -6% and the Z score is 0.91.
Taken in the same sequence, the figures for `Cc1ccc(Cc2nc(N3CCCN(C(=O)c4ccc(C)cc4)CC3)c3cnn(-c4ccccc4)c3n2)cc1` were 36% and -4.82.
Taken in the same sequence, the figures for `CC(C)Cc1cc(CN2CCN(Cc3ncc[nH]3)[C@H]3CS(=O)(=O)C[C@H]32)n[nH]1` were -10% and 1.14.
Regarding `CC1(NCc2cscn2)CCCCCC1`, the “% Inhibition” value was -15% and the Z score is 1.8.
Taken in the same sequence, the figures for `C=C[C@H]1OCC[C@@H]1NC(=O)c1cccc(OC)c1` were 11% and -2.02.
Regarding `CC1(C(=O)N[C@H]2CCN(C(N)=O)C2)CCCCCC1`, the “% Inhibition” value is reported as -5% and the Z score amounted to 0.75.
The matching figures for `C[C@H]1c2ccccc2CCN1C(=O)Nc1cn(C)nc1C1CC1`: -3% and 0.32.
Taken in the same sequence, the figures for `COCc1cc(NCCN2CCCCC2)n2nccc2n1` were 0% and 0.05.
Taken in the same sequence, the figures for `C[C@H]1CN(Cc2cc(C#N)cs2)C(C)(C)CO1` were -4% and 0.38.
Turning to `Cc1ccc(S(=O)(=O)Nc2ccc(S(=O)(=O)Nc3nccs3)cc2)cc1C`, the “% Inhibition” value is given as -9% and the Z score came to 1.5.
Taken in the same sequence, the figures for `C[C@H]1Cc2ccccc2N1C(=O)c1cn(C)c(=O)n(C)c1=O` were -4% and 0.43.
On to `O=C(COc1ccc(-n2cccn2)nn1)NCc1cccnc1`, for which the “% Inhibition” value was -11% and the Z score was 2.1.
Taken in the same sequence, the figures for `CCc1ccc(C(=O)NCCNS(=O)(=O)NC(C)C)cc1` were -9% and 0.82.
Taken in the same sequence, the figures for `Cc1cccc(NC(=O)Cn2c(C)cc(=O)n3nc(-c4ccccc4Cl)nc23)c1C` were -14% and 1.76.
Taken in the same sequence, the figures for `CN1CCC(N2CCC[C@H]2c2nc(-c3ccnc(N4CCOCC4)c3)no2)CC1` were -6% and 1.16.
For `COc1ccccc1NC(=O)c1c(NCc2sccc2C)sc2c1CCCCC2`, the “% Inhibition” value is given as -4% and the Z score was 0.71.
The matching figures for `CCOC(=O)c1nnc2ccccc2c1N1CCN(c2ccccc2F)CC1`: -13% and 1.79.
Taken in the same sequence, the figures for `Cc1c(C(=O)NCc2cc3n(n2)CCNC3)n(C)c2c(C)cccc12` were -6% and 1.14.
As for `CC(C)CC(=O)N(Cc1cccc(OS(=O)(=O)C(C)C)c1)CC(C)C`, the “% Inhibition” value is given as 0% and the Z score is on record as 0.07.
On to `Cc1cccc(-c2noc([C@@H]3CCCN3C(=O)NC(C)C)n2)c1`, for which the “% Inhibition” value was -3% and the Z score amounted to 0.38.
On to `Cc1ccc(-c2nc(CN3CCCS3(=O)=O)cs2)o1`, for which the “% Inhibition” value was -6% and the Z score is 1.02.
Take `C=CCC1(OCc2ccccc2)CCN(C(=O)Cn2nnnc2N)CC1`: the “% Inhibition” value is recorded as -6% and the Z score came to 1.02.
Taken in the same sequence, the figures for `O=C(Cn1cnnn1)Nc1c2c(nn1-c1ccc(Cl)cc1)CCC2` were 6% and -0.93.
For the compound `O=C(c1cccc(F)c1)N1CC[C@H]2[C@H](CCCN2Cc2ccc3nsnc3c2)C1`, the “% Inhibition” value turned out to be 11% and the Z score was -1.44.
The matching figures for `CNC(=O)c1ccc(CN(Cc2nccs2)C2CC2)o1`: -12% and 1.64.
On to `Clc1cnn(CCN2CCc3onc(-c4cccc5ccccc45)c3C2)c1`, for which the “% Inhibition” value was -5% and the Z score came out at 0.7.
Taken in the same sequence, the figures for `C1CCCCCC2(CCCCC1)OC[C@H](CN1CCOCC1)O2` were -12% and 2.31.
Take `CNC(=O)c1nc(-c2ccc(C)cc2-n2nc(C)cc2C)n[nH]1`: the “% Inhibition” value was -9% and the Z score was determined as 1.21.
The matching figures for `CCOCCO[C@@H](C)C(=O)Nc1nsc(N2CCCC2)n1`: -6% and 0.89.
The matching figures for `Cc1onc(C(=O)N2CC(F)(F)C[C@H]2c2nncn2CC2CC2)c1CN1CCCCC1`: -7% and 0.81.
The matching figures for `CCc1ccc(C(=O)NCc2c(C)cc(C)[nH]c2=O)o1`: -4% and 0.64.
Take `Cc1nc(CN(C)C(=O)c2csc(CC(C)C)n2)no1`: the “% Inhibition” value was -11% and the Z score turned out to be 1.54.
Regarding `CCC1(CC)NC(=O)N(CC(=O)NCc2ccc(CN3CC(C)CC(C)C3)cc2)C1=O` (configuration not stated), the “% Inhibition” value worked out at 13% and the Z score is -1.71.
On to `O=C1CCCC(=O)N1Cc1cccc(Br)c1`, for which the “% Inhibition” value was -6% and the Z score is 1.06.
The matching figures for `CN(CC(=O)N1CCc2sccc2C1)Cc1ccc(OC(F)(F)F)cc1`: -3% and 0.57.
Consider `Cn1ncnc1CCNC(=O)c1cccc(-c2ccc(CO)cc2CO)c1`, for which the “% Inhibition” value is recorded as -13% and the Z score worked out at 1.72.
The matching figures for `CCc1nnc(CNc2c(F)cc(F)cc2Br)s1`: -5% and 0.57.
Turning to `CCCNC(=O)Cn1ccn2nc(-c3ccccc3)c(CO)c2c1=O`, the “% Inhibition” value is -5% and the Z score is given as 0.46.
For `Cc1cccc(OCc2ccc(C(=O)Nc3nccs3)o2)c1`, the “% Inhibition” value is reported as -10% and the Z score came to 1.56.
On to `O=C(CN1CCC[C@H](C(=O)N2CCCC2)C1)Nc1cccc(Cl)c1`, for which the “% Inhibition” value is given as -11% and the Z score came to 1.46.
Turning to `O=C(CN1CCC[C@@](O)(CO)CC1)NCCc1ccc(F)cc1`, the “% Inhibition” value turned out to be 3% and the Z score is listed as -0.46.
Taken in the same sequence, the figures for `Cc1ccc(N)cc1S(=O)(=O)N(CCO)C1CCC1` were 14% and -1.69.
Taken in the same sequence, the figures for `CCc1ccc(NC(=O)Cn2cccc2-c2nc(-c3ccccc3)cs2)cc1` were 0% and -0.06.
Consider `O=C(Nc1cc2oc(=O)sc2cc1O)[C@@H]1CCCO1`, for which the “% Inhibition” value was -10% and the Z score was determined as 1.89.
The matching figures for `CCCCc1nn(CC(=O)N2CCC[C@H](O)C2)c(=O)n1CCc1ccccc1`: 3% and -0.44.
The matching figures for `O=c1[nH]c(-c2ccc(OCC(F)F)nc2)nc2cc(F)c(F)cc12`: 5% and -1.03.
With `C[C@@H]1CN(CC(=O)NCCc2csc(N)n2)C[C@H](C)O1`, the “% Inhibition” value worked out at 0% and the Z score is on record as -0.05.
Turning to `O=C(NC1CCC1)c1cccc(S(=O)(=O)NCc2n[nH]c3c2CCC3)c1`, the “% Inhibition” value is listed as -12% and the Z score was 1.16.
In the case of `Cc1nn(C(C)C)c(C)c1CN1CCn2nc(C#N)cc2C1`, the “% Inhibition” value came to 12% and the Z score is recorded as -2.27.
Taken in the same sequence, the figures for `O=C(N[C@H]1CC[C@H](Oc2ccccn2)CC1)N1CCOCC1` were -5% and 0.87.
`CC[C@H]1C=CCN1C(=O)c1ccccc1-c1nnn[nH]1`: the “% Inhibition” value was -18% and the Z score amounted to 1.7.
Consider `Cc1oncc1C(=O)NCC1(OCCO)CCCC1`, for which the “% Inhibition” value is given as -13% and the Z score was 1.44.
Regarding `Cc1cccc(N(CCC(N)=O)C(=O)[C@H]2CCn3ccnc3C2)c1`, the “% Inhibition” value was -1% and the Z score was determined as 0.21.
`Cc1cc(NC(=O)COc2ccc(Cl)cc2)on1`: the “% Inhibition” value is 0% and the Z score is listed as -0.03.
In the case of `O=C1NCC2(CCN(C(=O)c3cccc(-c4ccc5nc[nH]c5c4)c3)CC2)O1`, the “% Inhibition” value is listed as -36% and the Z score is given as 3.14.
As for `CS(=O)(=O)N[C@H]1C[C@@H]2C[C@H]1N(C(=O)c1ccc(C(F)(F)F)s1)C2`, the “% Inhibition” value is given as -5% and the Z score was found to be 0.76.
Taken in the same sequence, the figures for `Cc1n[nH]c(C)c1NC(=O)NCCCN(C)c1ccccc1` were -6% and 0.81.
On to `CCN(Cc1cnc2ccccn12)C(=O)C1(c2ccccc2)CCOCC1`, for which the “% Inhibition” value is recorded as -1% and the Z score is 0.08.
Take `COCCCn1cnnc1CNC(=O)c1cn2c3c(cccc3c1=O)CC2`: the “% Inhibition” value is 2% and the Z score is given as -0.28.
`CC(C)(C)OC(=O)N1CC(CCO)(NC(=O)CC#N)C1`: the “% Inhibition” value is on record as -5% and the Z score is given as 0.97.
As for `c1cc(CNC[C@H]2CNc3ccnn3C2)cc(Cn2ccnc2)c1`, the “% Inhibition” value stood at 8% and the Z score was -1.43.
The matching figures for `CC(C)Cc1cc(CN2C[C@@H](C(=O)O)CC2=O)no1`: -2% and 0.33.
With `Cn1c(CN2CCOCC2)c(Br)c(=O)n(C)c1=O`, the “% Inhibition” value is given as -1% and the Z score is 0.16.
The matching figures for `CNC(=O)CCCN(C)S(=O)(=O)C1CCC(C)(C)CC1`: -20% and 3.71.
The matching figures for `O=S(=O)(Cc1ccccc1F)N1CCc2nnc(C3CC3)n2CC1`: -2% and 0.36.
As to `COc1ccc(C(=O)N2CCCN(c3nc4ccccc4c4nnc(-c5ccc(C)cc5)n34)CC2)cc1`, the “% Inhibition” value was -11% and the Z score was 2.16.
Taken in the same sequence, the figures for `Cc1cc(CN(C)C(=O)C2=NN(c3ccccc3)C(=O)CC2)no1` were -14% and 2.26.
Taken in the same sequence, the figures for `CC(C)c1noc(N2CC3CC=CCC3C2)n1` (configuration not stated) were -18% and 1.56.
In the case of `CN(Cc1cnn(C)c1)C(=O)c1ccc2nc(-c3ccc(F)cc3)cn2c1`, the “% Inhibition” value is -9% and the Z score is 1.28.
The matching figures for `CCNC(=O)CN(CC)C(=O)NCCCN(C)c1ccccc1`: 4% and -0.82.
Turning to `Cc1[nH]c(=O)c(C#N)c(C)c1CCC(=O)N1CCCC2COCCC21` (configuration not stated), the “% Inhibition” value is on record as -6% and the Z score came out at 0.98.
With `CCCNC(=O)N1CCC2(CC1)N[C@@H](Cc1ccccc1)C(=O)N2Cc1ccccc1`, the “% Inhibition” value was -6% and the Z score is 1.
Consider `Cc1ccccc1NC(=O)N1CCC[C@H]1c1nc2cc(-c3ccc(F)cc3)ccc2o1`, for which the “% Inhibition” value was -11% and the Z score was 1.32.
In the case of `CN1C(=O)[C@@H]2CC[C@H]1CN(Cc1cc3c(cc1Cl)OCO3)C2`, the “% Inhibition” value amounted to 5% and the Z score is -0.6.

Source of the values: ChEMBL document CHEMBL4888484, “Replenishing the malaria drug discovery pipeline: Screening and hit evaluation of the MMV Hit Generation Library 1 (HGL1) against asexual blood stage Plasmodium falciparum ,using a nano luciferase reporter read-out” (2022).
